The source gives no read counts; variants with many changes may rest on few reads.

B1: LINE1-mini (parent)
chain: GGCAGAGCUCAACACAGCGUGGCAAAGUGGCUGUGGCUAGACUGCC

Variants of B1 are the subject of this series. Kind of series: self-cleavage, relative activity (ratio to wild type); higher = more cleavage; in vitro, sequencing; the parent is a self-cleaving ribozyme.
On to G7U G19C U28A G36C, for which the self-cleavage was found to be 0.03.
Turning to C3U U20A G22U G35A, the self-cleavage stood at 0.17.
For the variant A12U G19C C23A C45A, the self-cleavage came to 0.04.
With A11G A16C C42A U43G, the self-cleavage amounted to 0.03.
In the case of C10A G17U U20A A25C, the self-cleavage is 0.
Consider C13A A24C A39G, for which the self-cleavage turned out to be 0.1.
To C8U A39C C42G belongs 0.18; to G5A A6C C10G A11G, 0.02; to A4G C37G G40C C45U, 0.02.
C3A G36C C37G: the self-cleavage is 0.47.
On to A14U C15A C23U, for which the self-cleavage amounted to 0.03.
Consider C3U C15G U32G U43G, for which the self-cleavage was determined as 0.04.
On to G21A G29U G33C U38G G40C C45G, for which the self-cleavage is 0.04.
In the case of A14G U20G U28C G44A, the self-cleavage was 0.07.
On to C3G A11G G33A, for which the self-cleavage was found to be 0.06.
For A26G G29U G33C C42G, the self-cleavage was 0.04.
Consider A12U A26G G36C, for which the self-cleavage came out at 0.04.
As to G27U G33C G35U G44U, the self-cleavage was 0.08.
The value for U9C G17U G40U C46A was 0.32; that for C3U A4G C8U G22A U34C U43A was 0.19.
For G27A U43C C45G, the self-cleavage was 0.06.
The value for A16G G29U A41C was 0.05; that for G1C C13A G29U was 0.01.
On to C15A G17C C37G C46A, for which the self-cleavage worked out at 0.05.
As for G5U U9C U20A C46U, the self-cleavage is 0.01.
On to G17U G30C G36U U43A, for which the self-cleavage amounted to 0.
For the variant A24G C42A C46A, the self-cleavage came out at 0.07.
To A16G A25C C46A belongs 0.08.
For the variant G17U G19A G22A C23G, the self-cleavage is 0.26.
G1U G5U C10A U38G: the self-cleavage amounted to 0.01.
For C8G C10G C23A U38C G40U, the self-cleavage worked out at 0.
With A4C C13U A16U, the self-cleavage came out at 0.12.
As to A4U G35A C45G, the self-cleavage came to 0.2.
Take C23G C31A U43A C46G: the self-cleavage came to 0.
As for C8G C10A C42G, the self-cleavage stood at 0.04.
To C3G G27U U34C G40C belongs 0.07; to A4U G40A A41G, 0.04; to G17U C23U C45A, 0.03.
A6U C8U G22C A25G U28C C31A: the self-cleavage was determined as 0.06.
For the variant G7C A12U G33A U38C, the self-cleavage came out at 0.02.
For G2U C13G C37G, the self-cleavage is 0.01.
On to G1A G2U C3A A41U, for which the self-cleavage amounted to 1.97.
Regarding U9A G19U C31U G44C, the self-cleavage was found to be 0.01.
For the variant U28G G36C A39G, the self-cleavage came out at 0.02.
Consider U9G C10A G22A G29A, for which the self-cleavage amounted to 0.
As to A12G G19C U28C C37A, the self-cleavage was found to be 0.02.
Consider C13U G22C A41G, for which the self-cleavage is 0.12.
To G1A C23G U38A belongs 0.25; to A16U G29U A39C, 0.18; to G1A A11G C15U, 0.07.
Consider G2A A6G A11G G19U G40C C45A, for which the self-cleavage was found to be 0.01.
In the case of A12G G22C G44C, the self-cleavage was found to be 0.04.
With C13G C15U G17A U28G A39G, the self-cleavage worked out at 0.02.
Take G30C G33C A39U: the self-cleavage was 0.06.
On to G2U G7U G29U, for which the self-cleavage is 0.02.
For G1A A14U U20A C23A G36A, the self-cleavage stood at 0.11.
In the case of C13U G21A U34C C42U G44U, the self-cleavage came to 0.52.
A6G G40U C45U: the self-cleavage was found to be 0.1.
Take G5C C15A U34G G36C: the self-cleavage is 0.02.
To C10U U20C G29U U43A belongs 0.02.
In the case of G5U C8U C15A G19U A41C C45A, the self-cleavage is 0.16.
To G1C G35C A41U belongs 0.03.
G1U A4U C10U A11U A12U U28A G30A G33U: the self-cleavage is 0.01.
For C3A A24C A39G, the self-cleavage was found to be 0.2.
For C18U U20C A41C, the self-cleavage amounted to 0.05.
With G1U G7A C18A U20G G40C, the self-cleavage was found to be 0.29.
As for A4G G27C G29U, the self-cleavage worked out at 0.07.
To C10U A25G C37G U43C belongs 0.01; to C23G U32G A39C, 0.05; to A6G A11C C15A G27C C31U, 0.01.
On to C23A A26U G35A G44U, for which the self-cleavage was found to be 0.05.
To A12G G21U G29U G44U belongs 0; to C3G C8A U32A C42G, 0.16.
In the case of G7A A16C C37G U38C, the self-cleavage turned out to be 0.
Regarding G19C A26U U43G C45U, the self-cleavage was found to be 0.01.
Take A4C C8G A16U G21U G35C C42A: the self-cleavage was 0.01.
As to G5U U9A G35C, the self-cleavage amounted to 0.23.
On to G5U G7A G17C, for which the self-cleavage was 0.21.
For C18G G22U G30U G35C, the self-cleavage was found to be 0.03.
The value for G33U G36U A41U was 0.15.
With C15A G22A C37A, the self-cleavage is 0.06.
For G30U C31U G36C U43G, the self-cleavage was found to be 0.06.
Take A14U A39C G44U C45U C46U: the self-cleavage is 0.
On to C13U A14C C37G U38C, for which the self-cleavage was 0.05.
The value for C8G U9A U34C A39C C42G was 0.02.
To G19A A26C G33U belongs 0.27; to C15G G19A G21A C23G G36U, 0.03.
For G1U A6G C15U G17C, the self-cleavage was 0.03.
C10U A14G C18G C31U C37A G44C: the self-cleavage came out at 0.01.
Turning to U9C C15A U20G C23U G30U C42A G44C, the self-cleavage came out at 0.02.
On to A25G A26C G27U U43C, for which the self-cleavage is 0.1.
The value for G5C A6U C31G G33C was 0.06; that for C10A A11U A41U was 0.05.
Regarding A6C G7A A11U A24C, the self-cleavage was found to be 0.01.
The value for G1U A26U U34C was 0.02; that for A14C U28A G44U was 0.07; that for G1U C8U C13G U20C C42A was 0.03.
Regarding C3U A6G U38G C46A, the self-cleavage came out at 0.01.
Consider G2A A24U G27A, for which the self-cleavage was determined as 0.34.
Take A6G A12G C31A G33U: the self-cleavage was 0.08.
On to G19U G30C G36U C45A, for which the self-cleavage came to 0.06.
Turning to C8A C10G C15A G22C, the self-cleavage was determined as 0.01.
Turning to C3A C23G U32G, the self-cleavage is 0.19.
On to C3G C13A U32A A41G, for which the self-cleavage is 0.14.
Regarding G2C U20G C31A, the self-cleavage amounted to 0.02.
In the case of G2C G19A G33C G35U C45G, the self-cleavage worked out at 0.03.
The value for G30U U34G C45A was 0.02; that for C10U G27U C45U was 0.23.
For G19U G29A C42A, the self-cleavage was 0.35.
G5C G7A A16G C45U: the self-cleavage was determined as 0.24.
Take A6G G21U C23A: the self-cleavage was found to be 0.06.
The value for C23G C31A U32G G36A was 0.07; that for G2C C3U U20C G30U C31A C37U was 0.11; that for C3U A4U A6C A12U C31U was 0.03.
As for C10A C18U A24U, the self-cleavage amounted to 0.01.
G5U G22A G30U C37G: the self-cleavage turned out to be 0.08.
As to G7C G19U G22C, the self-cleavage was found to be 0.03.
For the variant G2U A14U C18A G36A, the self-cleavage came to 0.02.
To G2U A11U U20G U32C G44U belongs 0.03; to G2C A16U G17U, 0.13.
To G1A G2A A24C G27A U28G G35C belongs 0.76.
Consider G7C U32C G44A, for which the self-cleavage came out at 0.05.
With G17A G29C C45G, the self-cleavage was determined as 0.3.
On to C15G G22U G30U G33U, for which the self-cleavage was determined as 0.09.
With G2C G17U G36C C37A C45G, the self-cleavage was 0.03.
With G2U C3U C10U, the self-cleavage was 0.04.
Consider G5A C10U G29C G33A, for which the self-cleavage was determined as 0.03.
With C8G C10G U20A G33A, the self-cleavage was determined as 0.
A4C C23U A24U C45A: the self-cleavage was 0.06.
The value for A11C G21A G27U C37A was 0.01; that for A6C A25C C37A A41U was 0.19.
The value for C3A A12C C46G was 0.18.
G1A U20G G21U C23G C31A U32A U43A C46U: the self-cleavage came to 0.01.
For the variant G2C G7A C10U C18A U43A, the self-cleavage is 0.02.
In the case of A4C G27C G33C U38G, the self-cleavage worked out at 0.05.
Take G5U G17C G33U: the self-cleavage is 0.05.
The value for U20A U32G C45G was 0.09; that for G5U A12U G19C A24U was 0.01.
The value for C8G C15U G22C was 0.06; that for U28G U32G U34A C37G was 0.02; that for G5U U32G C45G was 0.1.
On to C8G G17C G30C C37A C42G, for which the self-cleavage turned out to be 0.05.
Regarding G2C A12G A14U, the self-cleavage stood at 0.02.
With G1U A14G G17C C23U C46U, the self-cleavage turned out to be 0.15.
Regarding A11C G17C C23A, the self-cleavage was found to be 0.01.
As to G5A G19C C31G, the self-cleavage turned out to be 0.05.
For the variant C3A U9A C13A G21A C23A, the self-cleavage came out at 1.2.
Take G29C U32A C46G: the self-cleavage amounted to 0.1.
To A4U C15A C18G belongs 0.07; to G5U G21C A26U A39C, 0.01.
As for G1A G19C U20A, the self-cleavage amounted to 0.15.
The value for G7C A11G C18A U34G was 0.03; that for A14G A39G G40C was 0.
Consider C10A G29A G40C C42U, for which the self-cleavage was found to be 0.01.
In the case of G7U C8A G40C, the self-cleavage stood at 0.1.
G2C G21U C37A: the self-cleavage is 0.17.
The value for G19C G30A C37A was 0.03; that for C10A A12G C15U was 0.02.
U9A A11C G17U: the self-cleavage is 0.03.
To A16C G17C G33A belongs 0.06; to U9C C18G U20G G33C C42A U43A, 0.
On to G5U C13A U20C G29U U32G, for which the self-cleavage was determined as 0.01.
For A4C A14C C18U G44A, the self-cleavage was determined as 0.04.
For the variant C8A U20A G30A G35U G44C, the self-cleavage came out at 0.22.
G21U A24G G30A G36U: the self-cleavage was determined as 0.07.
For the variant G1C G30A U38G A39G C45A, the self-cleavage turned out to be 0.
In the case of G33A G36U C42U C46A, the self-cleavage was found to be 0.
